The whole screen tested about 310,000 compounds, of which about 2,200 (0.71%) showed an effect of 50% or more. Effects have a minus sign here. This is one part of the list.

Chain of human ether-à-go-go-related gene (hERG) potassium channel (Q12809 whole entry, looked up): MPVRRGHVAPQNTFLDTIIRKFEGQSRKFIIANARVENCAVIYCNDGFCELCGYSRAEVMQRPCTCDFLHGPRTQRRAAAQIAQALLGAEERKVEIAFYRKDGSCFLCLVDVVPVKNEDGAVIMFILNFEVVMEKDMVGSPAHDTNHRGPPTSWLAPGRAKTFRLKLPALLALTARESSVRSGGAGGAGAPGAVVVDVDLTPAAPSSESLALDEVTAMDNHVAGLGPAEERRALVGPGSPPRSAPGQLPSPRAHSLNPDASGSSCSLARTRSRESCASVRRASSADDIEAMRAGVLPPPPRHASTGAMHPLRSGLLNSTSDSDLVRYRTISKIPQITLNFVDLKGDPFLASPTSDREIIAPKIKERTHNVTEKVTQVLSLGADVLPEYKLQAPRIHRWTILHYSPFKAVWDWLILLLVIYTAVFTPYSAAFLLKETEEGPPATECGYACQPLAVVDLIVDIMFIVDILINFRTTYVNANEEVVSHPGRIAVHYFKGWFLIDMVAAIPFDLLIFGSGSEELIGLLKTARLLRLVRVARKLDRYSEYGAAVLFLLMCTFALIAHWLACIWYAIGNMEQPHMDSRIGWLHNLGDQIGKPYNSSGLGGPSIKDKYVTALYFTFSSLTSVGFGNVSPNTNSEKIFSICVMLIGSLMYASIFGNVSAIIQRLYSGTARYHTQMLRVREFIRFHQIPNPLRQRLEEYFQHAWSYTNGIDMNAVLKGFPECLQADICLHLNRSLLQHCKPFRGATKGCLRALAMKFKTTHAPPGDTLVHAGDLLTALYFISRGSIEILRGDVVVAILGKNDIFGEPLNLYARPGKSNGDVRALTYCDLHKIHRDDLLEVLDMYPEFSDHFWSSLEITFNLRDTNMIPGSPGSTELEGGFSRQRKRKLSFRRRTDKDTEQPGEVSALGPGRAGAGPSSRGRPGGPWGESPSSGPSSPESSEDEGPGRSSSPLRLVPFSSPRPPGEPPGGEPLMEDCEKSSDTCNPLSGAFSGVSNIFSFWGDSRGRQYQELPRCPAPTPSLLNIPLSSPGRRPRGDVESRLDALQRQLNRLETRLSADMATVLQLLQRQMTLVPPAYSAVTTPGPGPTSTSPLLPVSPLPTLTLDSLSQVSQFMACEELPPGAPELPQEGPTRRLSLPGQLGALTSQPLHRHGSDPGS

The assay has as its target human ether-à-go-go-related gene (hERG) potassium channel (human, UniProt Q12809). The assay can be described thus: primary screen, population patch clamp on CHO cells stably expressing hERG.
Take `Fc1ccc2nc3[nH]c4ccccc4c3nc2c1`: the “hERG current change (%, negative = inhibition) at 1uM” value is recorded as 7.53%.

With `O=S(=O)(c1ccc(N2CCN(S(=O)(=O)c3ccccc3)CC2)nc1)N1CCCC1`, the “hERG current change (%, negative = inhibition) at 1uM” value is on record as 12.9%.

Regarding `Cc1cccc(CS(=O)(=O)Cc2ccc(C(=O)NCc3cccs3)o2)c1`, the “hERG current change (%, negative = inhibition) at 1uM” value is reported as -11.6%.

For `COc1ccc(C2CC(=O)C3=C(C2)Nc2ccccc2N(C(=O)CCC(=O)O)C3c2ccc(F)cc2)cc1` (stereo not drawn), the “hERG current change (%, negative = inhibition) at 1uM” value is recorded as 2.41%.

For `Cc1ccc(Cn2nnc(C(=O)Nc3cccc(C)c3C)c2N)cc1`, the “hERG current change (%, negative = inhibition) at 1uM” value stood at 4.7%.

Consider `Cc1ccnc(NC(=O)CN(C)S(=O)(=O)c2cccc3nsnc23)c1`, for which the “hERG current change (%, negative = inhibition) at 1uM” value is recorded as 10.2%.

On to `CCOC(=O)COn1c(=O)c(-c2ccccc2)[n+]([O-])c2ccccc21`, for which the “hERG current change (%, negative = inhibition) at 1uM” value is given as 4.04%.

On to `Cc1ccccc1OCC(=O)OC1CCN(C)CC1.Cl`, for which the “hERG current change (%, negative = inhibition) at 1uM” value amounted to 4.9%.

Turning to `Cc1cccnc1NC(=O)Nc1ccccc1`, the “hERG current change (%, negative = inhibition) at 1uM” value amounted to 12.1%.

Regarding `Cc1ccc(S(=O)(=O)C2(S(=O)(=O)c3ccc(C)cc3)CCCC2)cc1`, the “hERG current change (%, negative = inhibition) at 1uM” value is on record as -10.6%.

Take `Cc1nc(N)nc(COc2ccccc2)n1`: the “hERG current change (%, negative = inhibition) at 1uM” value is recorded as 11.1%.

Take `COC(=O)c1c(NC(=O)c2ccccc2)sc2c1CC(C)(C)NC2(C)C`: the “hERG current change (%, negative = inhibition) at 1uM” value is 6.12%.

`O=C1N/C(=C/c2ccc(Br)s2)C(=O)N1c1ccccc1`: the “hERG current change (%, negative = inhibition) at 1uM” value stood at 18.9%.

As for `CN(CCc1ccccn1)S(=O)(=O)c1ccc(F)cc1`, the “hERG current change (%, negative = inhibition) at 1uM” value came to 7.67%.

Regarding `CC(=O)c1ccc(S(=O)(=O)NCCC(=O)OC(C)C(=O)Nc2ccc(F)cc2)cc1` (stereo not drawn), the “hERG current change (%, negative = inhibition) at 1uM” value was found to be 8.18%.

Consider `Cc1cc(C(=O)COC(=O)c2ccc[nH]c2=O)c(C)n1-c1ccccc1F`, for which the “hERG current change (%, negative = inhibition) at 1uM” value was 1.72%.

Take `COc1ccc([N+](=O)[O-])cc1NC(=O)COC(=O)/C=C/c1ccco1`: the “hERG current change (%, negative = inhibition) at 1uM” value worked out at 6.21%.

With `O=C(c1n[nH]c2c1CCC2)N1CCCC(Nc2cccc(F)c2)C1` (stereo not drawn), the “hERG current change (%, negative = inhibition) at 1uM” value was -3.65%.

Consider `COC(=O)C(Cc1ccccc1)NC(=O)COc1ccc(C(C)(C)C)cc1` (stereo not drawn), for which the “hERG current change (%, negative = inhibition) at 1uM” value is on record as 3.8%.

Regarding `Cc1ccc(C(=O)NNC(=O)c2cc3ccccc3cc2O)cc1`, the “hERG current change (%, negative = inhibition) at 1uM” value is recorded as 11.4%.

In the case of `CCOc1nc(C)ccc1-c1noc(-c2ccccc2OC)n1`, the “hERG current change (%, negative = inhibition) at 1uM” value is listed as 15.9%.

As for `CCOc1ccc(NC(=O)C2CCCN(S(=O)(=O)c3ccc4c(c3)CC(C)N4C(C)=O)C2)cc1` (stereo not drawn), the “hERG current change (%, negative = inhibition) at 1uM” value stood at 17.8%.

Regarding `Cc1cc(OCC(=O)N[C@@H](Cc2ccccc2)C(=O)O)c2c3c(c(=O)oc2c1)CCC3`, the “hERG current change (%, negative = inhibition) at 1uM” value is 2.6%.

As for `O=C(NCC1CCCN1S(=O)(=O)c1cccs1)c1cccc(Cl)c1` (stereo not drawn), the “hERG current change (%, negative = inhibition) at 1uM” value came out at 11.3%.

Consider `COc1cccc(C(=O)NCC(c2ccc3c(c2)OCO3)N2CCN(c3ccc(F)cc3)CC2)c1` (stereo not drawn), for which the “hERG current change (%, negative = inhibition) at 1uM” value was determined as 4.47%.

With `CC(=O)Nc1nc2cc3c(cc2s1)OCO3`, the “hERG current change (%, negative = inhibition) at 1uM” value was 10.7%.

For `COc1ccc(-c2nc(CS(=O)CC(=O)NCc3ccco3)c(C)o2)cc1` (stereo not drawn), the “hERG current change (%, negative = inhibition) at 1uM” value is recorded as -1.89%.

As to `CC1CCCN(c2ccc(N)cc2C(N)=O)C1` (stereo not drawn), the “hERG current change (%, negative = inhibition) at 1uM” value is -1.18%.

As to `C=C(C)Cn1c(N2CCCC2)nc2c1c(=O)[nH]c(=O)n2C`, the “hERG current change (%, negative = inhibition) at 1uM” value is recorded as 11%.

With `COc1ccc(-c2cc(-c3ccc(OC)cc3)[nH]n2)cc1`, the “hERG current change (%, negative = inhibition) at 1uM” value is recorded as 9.42%.

Take `CCOC(=O)c1c(NC(=O)COc2ccccc2F)sc2c1CC(C)(C)NC2(C)C`: the “hERG current change (%, negative = inhibition) at 1uM” value is 8.47%.

Take `COc1ccc(S(=O)(=O)N2CCC(C(N)=O)CC2)c2ccccc12`: the “hERG current change (%, negative = inhibition) at 1uM” value is 8.9%.

`CCC(C)(C)N(C(=O)CCC(=O)Nc1cc(C)on1)C(C(=O)NC(C)(C)C)c1ccc(OC)cc1` (stereo not drawn): the “hERG current change (%, negative = inhibition) at 1uM” value is listed as 17%.

`CC(C)c1cccc(C(C)C)c1OC(=O)NC(=O)c1c(F)cccc1F`: the “hERG current change (%, negative = inhibition) at 1uM” value is reported as 14.3%.

`Clc1ccc(/C=N/N2CCN(Cc3ccccc3Cl)CC2)cc1`: the “hERG current change (%, negative = inhibition) at 1uM” value was found to be 15.7%.

With `CC(C)NC(=O)CN1CCN(C(=O)c2ccc3oc(CCCc4ccccc4)nc3c2)CC1`, the “hERG current change (%, negative = inhibition) at 1uM” value is -5.99%.

Consider `O=C(Cc1ccc(Cl)cc1)N/N=C1\CCCc2ccccc21`, for which the “hERG current change (%, negative = inhibition) at 1uM” value was determined as 4.73%.

On to `O=C(Nc1cccc(F)c1)c1c(F)c(F)c(F)c(F)c1F`, for which the “hERG current change (%, negative = inhibition) at 1uM” value was -0.347%.

For `O=C1CC(c2ccc(Br)cc2)NC(c2ccc(Br)cc2)C1c1ccccc1` (stereo not drawn), the “hERG current change (%, negative = inhibition) at 1uM” value was -0.295%.

As to `Cc1cc(C)c(S(=O)(=O)c2ccccc2Cl)c(Cl)n1`, the “hERG current change (%, negative = inhibition) at 1uM” value worked out at 6.98%.

Turning to `CC1(c2ccc(Cl)cc2)NC(=O)N(CC(=O)N2CCN(S(=O)(=O)c3ccccc3)CC2)C1=O` (stereo not drawn), the “hERG current change (%, negative = inhibition) at 1uM” value is -12%.

Consider `O=C(CCCc1ccccc1)N1CCN(C2CCCCC2)CC1`, for which the “hERG current change (%, negative = inhibition) at 1uM” value is -23.6%.

On to `CCOc1ccc(-c2nc(N)nc(C)c2-c2ccc(Cl)cc2)c(O)c1`, for which the “hERG current change (%, negative = inhibition) at 1uM” value was -4.33%.

Take `Cc1cc(O)c(C=Nc2ccc(Cl)cn2)c(=O)o1`: the “hERG current change (%, negative = inhibition) at 1uM” value was 11.7%.

Regarding `O=C(NCc1ccccc1Br)c1ccco1`, the “hERG current change (%, negative = inhibition) at 1uM” value was determined as 12.5%.
